At least one structure is not confirmed: it was looked up by name or label, or the drawing left a doubt.
Key:
[1] = Assay (III) ThT fibrillation, physical stability; format: physicochemical; conditions: pH 7.5, 37° C., shaking
[2] = test system: ad libitum fed Sprague Dawley (SD) rats; test: Assay (I) efficacy testing on appetite (food intake), ad libitum fed rat model; format: in vivo

## CC(C)C[C@H](NC(=O)CNC(=O)[C@H](CO)NC(=O)[C@H](C)NC(=O)COCCOCCNC(=O)COCCOCCNC(=O)CC[C@H](NC(=O)CCCCCCCCCCCCCCCCC(=O)O)C(=O)O)C(=O)N[C@@H](CO)C(=O)N[C@H](C(=O)N[C@@H](C)C(=O)N[C@H](C(=O)N[C@@H](CC(C)C)C(=O)NCC(=O)N[C@@H](CCCNC(=N)N)C(=O)N[C@@H](CC(C)C)C(=O)N[C@@H](CO)C(=O)N[C@@H](CCC(N)=O)C(=O)N[C@@H](CCC(=O)O)C(=O)N[C@@H](CC(C)C)C(=O)N[C@@H](Cc1c[nH]cn1)C(=O)N[C@@H](CCC(=O)O)C(=O)N[C@@H](CC(C)C)C(=O)N[C@@H](CCC(N)=O)C(=O)N[C@H](C(=O)N[C@@H](Cc1ccc(O)cc1)C(=O)N1CCC[C@H]1C(=O)N[C@@H](CCCNC(=N)N)C(=O)N[C@H](C(=O)N[C@@H](CCC(=O)O)C(=O)N[C@H](C(=O)NCC(=O)N[C@@H](CO)C(=O)NCC(=O)N[C@H](C(=O)N[C@@H](Cc1ccc(O)cc1)C(N)=O)[C@@H](C)O)[C@@H](C)O)[C@@H](C)O)[C@@H](C)O)C(C)C)[C@@H](C)O [compound 121, [N-terminal(C18 diacid-gGlu-2xOEG), des1, 4G, 9V, 15Q, 21Q, 23Y, 30S, 31G, 32T, 33Y]mimylin]
[1]
  ThT pH 7.5 lag time (h): >45 h
[2]; 0-24 hours after administration
  PD rat 3 nmol/kg reduction (%) 0-24 h (food intake reduction): 0%
[2]; 24-48 hours after administration
  PD rat 3 nmol/kg Reduction (%) 24-48 h (food intake reduction): 0%
